Results on 219 sequences are retold here after publication PMC10668032.

The list shows a part of the results. At the low end of the ranking, values are background and their order means little.

The target of this assay is SIX1 homeodomain (reference allele) (UniProt Q15475). In words: universal protein binding microarray. The settings on record: Universal all-10-mer PBM (8x60K, AMADID 030236), 300 nM GST-tagged protein, Alexa Fluor 488 anti-GST; buffer, salt, pH and temperature not stated; high values mean tight binding; most listed sequences are background and not binding sites; double strand, one strand shown.
With CTCCTTAC, the binding signal was -0.0593 E-score.
With GGGGACAC the figure was 0.161 E-score.
With CCTGGGCA the figure was -0.036 E-score; with ACCAGCGG, 0.088 E-score; with ATGGCTCA, 0.133 E-score.
With TGGCGTAA the figure was -0.0831 E-score; with GCTAGGAC, -0.236 E-score.
Take AGACGAAT: the binding signal was determined as 0.0567 E-score.
With TAATCCCA the figure was 0.144 E-score.
With GAGGCGCA, the binding signal was -0.0493 E-score.
Then GCGTGTTA, with -0.0776 E-score.
With CGTAGGTA the figure was 0.08 E-score; with AAACTCGC, -0.216 E-score.
Then ATCATCGC, with 0.326 E-score.
Take AACGAGTC: the binding signal was -0.243 E-score.
Then GATAGGCC, with 0.209 E-score; and ACCGTGAT, with 0.294 E-score.
Take GATCTCCC: the binding signal amounted to 0.361 E-score.
For CCTGGCGC, the binding signal is -0.214 E-score.
Then AGCAATAA, with -0.0578 E-score; and ACTCAATC, with -0.105 E-score.
Then ATGTTTGA, with 0.0193 E-score; and TAAGTGTA, with 0.0749 E-score.
With CCAGCAGA the figure was 0.0196 E-score; with CACAGAGA, 0.039 E-score; with CAATATTA, 0.0544 E-score.
For the sequence AATACTGG, the binding signal was 0.109 E-score.
Then AGCAGAAA, with -0.0824 E-score; and CTGCAACA, with -0.156 E-score; and GGTAAACC, with -0.0374 E-score.
Then AGGCGCAA, with -0.153 E-score; and AAGCGAGT, with -0.0842 E-score; and CGAGACGA, with 0.156 E-score.
With ATCACTAC the figure was 0.287 E-score; with CGGCTCAG, 0.103 E-score; with GAATAACA, -0.0415 E-score.
Take CCGGTGGC: the binding signal is -0.0242 E-score.
Then AACAACCG, with -0.0807 E-score.
With ACGAACCG the figure was 0.116 E-score; with ACGGTGTC, 0.437 E-score; with GTAAGGGA, 0.0722 E-score.
For CAGTACAC, the binding signal is 0.124 E-score.
With AGTGCGAA the figure was -0.27 E-score; with GATCTCGA, 0.221 E-score.
ATCGGCTA: the binding signal stood at 0.173 E-score.
Then ACCAAAGC, with -0.157 E-score; and ATACGACA, with 0.245 E-score.
For CCTGTTTA, the binding signal was -0.224 E-score.
For the sequence ACAATCGA, the binding signal was -0.196 E-score.
Then CTTCATAA, with -0.0638 E-score.
Then AAGCAACT, with -0.249 E-score; and TATTTTAA, with -0.0664 E-score; and AAAGGGGT, with -0.109 E-score.
With ACTGAGAA the figure was -0.0128 E-score; with GGCCTTCA, -0.268 E-score; with ACTCTGTA, -0.0402 E-score.
In the case of ATCTCAAA, the binding signal was 0.144 E-score.
With CCGAAACG the figure was -0.043 E-score; with GGTTGTCA, -0.153 E-score.
Then AGGGCTAC, with -0.102 E-score; and AATCTTGG, with -0.206 E-score; and AGGCTTTA, with -0.148 E-score.
With ATTATAGA the figure was 0.1 E-score; with CAGCTGGA, 0.157 E-score.
CACTAATG: the binding signal is -0.0519 E-score.
ACAAGTGA: the binding signal stood at 0.0567 E-score.
CAGTAATA: the binding signal came to 0.128 E-score.
Then GGGTGGGA, with 0.0261 E-score; and TTCCTCAA, with -0.21 E-score.
Then ATCTAGGA, with 0.157 E-score.
As for ACAAGGGA, the binding signal is -0.0834 E-score.
Then GTTCGTGA, with -0.0136 E-score; and AGCGCACC, with -0.24 E-score.
With GTTACCAA the figure was 0.0209 E-score; with AGACAATA, 0.0677 E-score.
With TGGCCCAA the figure was -0.206 E-score.
AAAGCTTT: the binding signal is -0.247 E-score.
With GAATAATC the figure was 0.209 E-score.
With AAATTGGG the figure was -0.211 E-score.
On to ACCACGTG, for which the binding signal was -0.188 E-score.
Regarding CAACTGCA, the binding signal was -0.161 E-score.
With CCACGATA, the binding signal is 0.324 E-score.
Then AGCGTTGG, with 0.0303 E-score; and ATATTAGG, with 0.257 E-score; and GAAATTGC, with -0.276 E-score.
With CAAACTGG the figure was 0.0125 E-score; with CGACGAAC, 0.0173 E-score.
On to GTACCAGA, for which the binding signal was -0.00118 E-score.
As to CAGCACAG, the binding signal was -0.122 E-score.
With GTTTAACA the figure was -0.0814 E-score; with AGCCCGCG, 0.0348 E-score; with AAACATGA, -0.0703 E-score.
With AATGCAGC the figure was -0.106 E-score; with CGTAAGGC, -0.208 E-score.
With ATCCTTAG the figure was 0.283 E-score; with CCAGAGCC, -0.132 E-score.
On to AGCACAAG, for which the binding signal is -0.274 E-score.
With AAGGATTG the figure was 0.0414 E-score; with CCTGGCAA, -0.118 E-score.
Regarding CCACGCGG, the binding signal was -0.0852 E-score.
Consider AGCGGCGC, for which the binding signal was -0.279 E-score.
With CAGTGCAA the figure was -0.0851 E-score; with AAGTGCCA, -0.173 E-score; with AGTCCCAG, -0.153 E-score.
Then GGTATATA, with 0.384 E-score.
Then ACTACAAG, with -0.196 E-score; and AGTAGTCC, with -0.101 E-score.
For the sequence ATCCTGTA, the binding signal was determined as 0.128 E-score.
Then CATTCGCA, with -0.132 E-score; and ATCACTAA, with 0.166 E-score; and AATCAATC, with 0.122 E-score.
Then TAATTTAA, with -0.147 E-score.
With GCTTATAA the figure was -0.0372 E-score; with TATGGACA, 0.0876 E-score.
On to ATTTTGCC, for which the binding signal was -0.157 E-score.
Turning to CCCAGACC, the binding signal is -0.014 E-score.
On to GGAGCAGA, for which the binding signal was 0.0396 E-score.
Consider AGATTGTA, for which the binding signal was determined as 0.108 E-score.
Then CATTGAGA, with 0.0549 E-score; and AGAGACAG, with -0.0578 E-score.
With GCATAACC the figure was -0.106 E-score; with AAGAGCTG, 0.0703 E-score; with CCCTGGTC, 0.0462 E-score.
Then TACGCGGA, with 0.119 E-score; and TACTACGA, with 0.0307 E-score; and ATAAGGCG, with -0.104 E-score.
Turning to ACGAAGTC, the binding signal was -0.317 E-score.
With AACGCATG, the binding signal is -0.103 E-score.
Then CACACAGG, with 0.0155 E-score; and CAGCGACA, with -0.0166 E-score; and CCGCGGGC, with 0.062 E-score.
With GCACAATA the figure was 0.141 E-score; with CCCCGTAG, 0.176 E-score.
Then ATACCTGG, with 0.27 E-score.
Turning to CCCGCTCG, the binding signal is 0.146 E-score.
With AGCTAATC the figure was 0.129 E-score; with ATTTTGGC, -0.192 E-score; with AGATCGTC, 0.222 E-score.
With AGCGCCAT the figure was -0.232 E-score.
Then ACTGCACC, with -0.114 E-score.
With TTATGAAA, the binding signal was -0.0689 E-score.
Then CTTAATCC, with 0.195 E-score; and CATCTGTC, with 0.092 E-score; and GAGGACCC, with -0.0906 E-score.
With AGCGAAGC the figure was -0.291 E-score.
For AGAGCCCC, the binding signal was -0.022 E-score.
With GGCTCTGA the figure was -0.0456 E-score; with GGTTAGGA, 0.0125 E-score; with ACCGATGA, 0.17 E-score.
Then AGGGTAAG, with 0.066 E-score; and CCGGGAAG, with -0.141 E-score; and ATTCGACA, with -0.0107 E-score.
Then GGGATGAC, with 0.13 E-score.
Turning to AAAAGCGG, the binding signal was -0.203 E-score.
With GGGTCACC the figure was -0.0147 E-score; with AAATCCCG, 0.0304 E-score.
With CTTTGGAA the figure was -0.161 E-score.
Then CGAAGACG, with -0.109 E-score.
For AGGTACTG, the binding signal was -0.0683 E-score.
Then GGCTGCGA, with -0.163 E-score; and AAGATGGG, with -0.085 E-score.
Then CTGACTGA, with -0.1 E-score.
Then CGGCGACC, with 0.000575 E-score.
For the sequence TACTATGA, the binding signal was 0.12 E-score.
GAGTCCGA: the binding signal was -0.0844 E-score.
Then CGTACTAC, with -0.0306 E-score.
In the case of GAACAGCA, the binding signal was -0.18 E-score.
Then GATTTTGC, with -0.0829 E-score; and CTGCCCAC, with -0.199 E-score; and CTAGAATC, with -0.0571 E-score.
With AGTGTCCA the figure was 0.0234 E-score.
Then AGCACATG, with -0.251 E-score; and TACGAGTA, with 0.117 E-score; and AGGTCCGG, with -0.142 E-score.
Take CGGTGACA: the binding signal was 0.103 E-score.
For CACCAGGG, the binding signal is 0.0326 E-score.
With GTACAAAA the figure was -0.231 E-score; with CCGTACGA, -0.0297 E-score.
With ACCTTGTA the figure was 0.0115 E-score; with CGCCCACG, -0.0689 E-score; with AAGAATAC, 0.214 E-score.
For the sequence TGGGCCCA, the binding signal is -0.225 E-score.
With ATTTGAAC the figure was -0.0561 E-score; with ACTCTGAG, -0.033 E-score; with CACGGTCA, -0.197 E-score.
Then ATTGGAAG, with -0.267 E-score.
With ACCACTAT the figure was 0.112 E-score; with GATACCAA, 0.43 E-score; with GTATCAGA, 0.466 E-score.
As to AACAGTAT, the binding signal came to 0.196 E-score.
With ACAGCTGC the figure was -0.213 E-score; with GGATATAC, 0.406 E-score.
For the sequence CGGTATGC, the binding signal is -0.0276 E-score.
For CCTAACAC, the binding signal came to 0.129 E-score.
With CGGGAGAG the figure was 0.015 E-score.
With ATGGAGGA the figure was 0.155 E-score; with CGTATAAC, 0.204 E-score.
Then AGTGTGTA, with -0.014 E-score; and AATTACGG, with -0.171 E-score; and CGCGGTAG, with 0.0556 E-score.
For AGATCCCT, the binding signal came to 0.292 E-score.
With ACGTGAGG the figure was -0.0151 E-score; with TTAGGGAA, -0.227 E-score.
AGTGTTCG: the binding signal was -0.108 E-score.
Then CTTCCTCC, with -0.152 E-score; and CCAGTACC, with -0.052 E-score.
With GAATCTCC the figure was 0.0692 E-score; with CAGGCGGG, -1e-05 E-score; with AGTACAAC, -0.0315 E-score.
Then ATGAGACC, with 0.295 E-score.
For AAAGCAAT, the binding signal is 0.00415 E-score.
Take GCACTGGC: the binding signal was -0.124 E-score.
Consider AATCGATC, for which the binding signal was determined as 0.138 E-score.
With ACGCGTGC the figure was -0.225 E-score; with AGCTCGCG, -0.0933 E-score.
With CCGTAAAA the figure was -0.0266 E-score; with GCCGCGCC, -0.102 E-score; with ACCATTAA, -0.0435 E-score.
With CTTATGTC the figure was -0.0727 E-score.
